{
  "source": "PubChem BioAssay AID485294",
  "about": "(National Center for Advancing Translational Sciences (NCATS), 2010)",
  "note": "The whole screen tested about 370,000 compounds, of which about 150 (0.041%) were called active. The inconclusive results got no clear call from the source; some entries with a clear call stand among them for comparison. Calls follow the shape of the dose curve; as a rule, active = well fitted inhibition curve with a large enough effect; inconclusive = small, poorly fitted or top-dose-only effect; inactive = flat fitted curve, though single readings scatter. No potency is given beside an inconclusive call; the fits are too rough. Potency is read from the fitted curve at half-maximal effect; tags tell the direction and shape of the fitted curve.",
  "data": [
    {"molecular_target": "Beta-lactamase (Escherichia coli (strain K12)) (UniProt P00811)", "sequence (P00811 whole entry, looked up)": "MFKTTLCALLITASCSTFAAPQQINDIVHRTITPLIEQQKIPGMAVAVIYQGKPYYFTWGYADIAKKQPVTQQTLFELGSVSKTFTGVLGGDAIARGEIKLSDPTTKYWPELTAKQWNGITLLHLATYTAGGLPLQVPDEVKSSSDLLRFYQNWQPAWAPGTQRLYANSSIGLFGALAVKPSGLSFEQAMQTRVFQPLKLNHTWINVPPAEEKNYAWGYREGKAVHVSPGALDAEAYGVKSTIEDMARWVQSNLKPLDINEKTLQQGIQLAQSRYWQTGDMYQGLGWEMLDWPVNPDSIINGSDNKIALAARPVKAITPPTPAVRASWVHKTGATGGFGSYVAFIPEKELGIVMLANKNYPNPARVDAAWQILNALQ", "assay": "qHTS Inhibitors of AmpC Beta-Lactamase (assay with detergent); also: nearly all actives have a fitted effect of over 25% in size;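 as to activity change, negative = inhibition: 0% = no-compound wells and -100% = no-enzyme wells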", "conditions": "AmpC hydrolysis of nitrocefin, absorbance 480 nm, 0.01% Triton; activity change, negative = inhibition: at 114 µM (top of the series)", "procedure,_shortened": "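20 mM phosphate pH 7.0 + 0.01% (detergent screen) or 0.0001% Triton X-100; 5.3 nM AmpC reagent; cpd preinc 15 min RT; nitrocefin (800 uM stock) to start; A480 q20 s × 4 min; Activity was normalised to no-enzyme and no-compound control wells.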", "values": [
      {"smiles": "O=C(Cn1c(=O)oc2ccccc21)NCc1ccco1", "Potency": "inconclusive [inhibitor, full curve, poor fit]"},
      {"smiles": "CCc1sc(NC(=O)c2cc3ccccc3oc2=O)nc1-c1cccs1", "activity change, negative = inhibition": "inactive: -11.9%"},
      {"smiles": "Cc1ccc(S(=O)(=O)N2CCSC2c2ccco2)cc1", "note": "(configuration not stated)", "Potency": "inconclusive [inhibitor, partial curve, poor fit]"},
      {"smiles": "COC(=O)c1ccccc1NC(=O)CCS(=O)(=O)c1nc(-c2ccc3c(c2)OCO3)cc(C(F)(F)F)n1", "Potency": "inconclusive [inhibitor, single point]"},
      {"smiles": "Cc1cccc(C)c1NC(=O)CCCSc1nnc(-c2ccco2)o1", "Potency": "inconclusive [inhibitor, full curve, poor fit]"},
      {"smiles": "CCCCC(=O)NNC(=S)NC(=O)c1ccc(C)cc1", "Potency": "inconclusive [inhibitor, single point]"},
      {"smiles": "CCOC(=O)N1CCN(C(=O)c2cc3c(=O)[nH]c4ccccc4c3s2)CC1", "Potency": "inconclusive [inhibitor, single point]"},
      {"smiles": "Nc1nc(SCc2ccccc2Cl)n[nH]1", "Potency": "inconclusive [inhibitor, partial curve, poor fit]"},
      {"smiles": "CC1=CC(c2ccccc2)=Nc2ccc(C)cc2N1", "Potency": "inconclusive [inhibitor, partial curve, poor fit]"},
      {"smiles": "Clc1ccc(/C=N/NC2=Nc3cccc4cccc2c34)cc1", "activity change, negative = inhibition": "inactive: -0.588%"},
      {"smiles": "O=C(N/C(=C/c1cn(-c2ccccc2)nc1-c1ccccc1)C(=O)N1CCOCC1)c1ccc(Cl)cc1Cl", "Potency": "inconclusive [inhibitor, full curve, poor fit]"},
      {"smiles": "Cc1ccc(-c2nnc3sc(C4COc5ccccc5O4)nn23)cc1", "note": "(configuration not stated)", "Potency": "inconclusive [inhibitor, full curve, poor fit]"},
      {"smiles": "O=C(NNC(=O)c1cc(Cl)ccc1O)c1ccc(NS(=O)(=O)c2cccs2)cc1", "Potency": "inconclusive [inhibitor, partial curve, poor fit]"},
      {"smiles": "Cc1ccc(-c2nnc(-c3ccccc3Br)o2)cc1", "Potency": "inconclusive [inhibitor, partial curve, poor fit]"},
      {"smiles": "CCOc1ccccc1N(C(=O)CNC(=O)c1ccco1)C(C(=O)NC(C)(C)C)c1ccncc1", "note": "(configuration not stated)", "Potency": "inconclusive [inhibitor, full curve, poor fit]"},
      {"smiles": "O=C(Nc1cccc(-c2nc3ccccc3o2)c1)c1cccc2c(Cl)cccc12", "activity change, negative = inhibition": "inactive: 0.418%"},
      {"smiles": "Cc1cc(C)cc(N2C(=O)C3C4C=CC(C4)C3C2=O)c1", "note": "(configuration not stated)", "Potency": "inconclusive [inhibitor, full curve, poor fit]"}
    ]}
  ]
}
